Source: article PMC10272126
Where a chain is given by its changes, count along the chain named. Results are given in words; binding and its absence hold for the method and conditions named. Binding seen in cells or lysates may run through a third protein. Some binding calls cover weakened binding; strength is not graded here. For some assays here: Tags and fused reporters may be left off the sequences shown.

Sequences of proteins named here, by UniProt entry; tags and fusion partners are left off.
UniProt Q15438: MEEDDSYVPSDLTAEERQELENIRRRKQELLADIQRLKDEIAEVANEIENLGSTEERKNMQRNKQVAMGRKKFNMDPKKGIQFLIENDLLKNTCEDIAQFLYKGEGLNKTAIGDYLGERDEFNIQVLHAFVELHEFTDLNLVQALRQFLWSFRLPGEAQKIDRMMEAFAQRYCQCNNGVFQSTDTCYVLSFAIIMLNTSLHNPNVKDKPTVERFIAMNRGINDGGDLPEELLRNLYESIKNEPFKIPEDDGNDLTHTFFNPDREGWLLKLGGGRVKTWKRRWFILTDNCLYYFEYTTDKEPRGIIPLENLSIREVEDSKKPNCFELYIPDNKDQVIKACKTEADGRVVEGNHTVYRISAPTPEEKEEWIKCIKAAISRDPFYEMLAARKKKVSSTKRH
UniProt O43739: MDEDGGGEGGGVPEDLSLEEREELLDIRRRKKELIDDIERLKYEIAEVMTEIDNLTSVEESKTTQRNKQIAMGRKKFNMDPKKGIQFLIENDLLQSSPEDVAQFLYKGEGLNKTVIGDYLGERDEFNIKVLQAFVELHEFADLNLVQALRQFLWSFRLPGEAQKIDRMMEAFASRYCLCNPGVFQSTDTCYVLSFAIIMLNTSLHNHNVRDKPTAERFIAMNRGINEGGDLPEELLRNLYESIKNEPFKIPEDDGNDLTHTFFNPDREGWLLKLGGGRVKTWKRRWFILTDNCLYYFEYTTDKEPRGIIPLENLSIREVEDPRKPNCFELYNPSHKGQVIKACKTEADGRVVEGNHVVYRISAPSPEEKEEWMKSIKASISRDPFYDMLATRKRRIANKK
UniProt P62330: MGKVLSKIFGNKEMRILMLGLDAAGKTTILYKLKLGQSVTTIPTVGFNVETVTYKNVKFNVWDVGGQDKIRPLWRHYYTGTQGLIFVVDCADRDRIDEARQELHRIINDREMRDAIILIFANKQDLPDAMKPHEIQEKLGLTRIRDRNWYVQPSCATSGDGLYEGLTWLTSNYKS
UniProt Q99418: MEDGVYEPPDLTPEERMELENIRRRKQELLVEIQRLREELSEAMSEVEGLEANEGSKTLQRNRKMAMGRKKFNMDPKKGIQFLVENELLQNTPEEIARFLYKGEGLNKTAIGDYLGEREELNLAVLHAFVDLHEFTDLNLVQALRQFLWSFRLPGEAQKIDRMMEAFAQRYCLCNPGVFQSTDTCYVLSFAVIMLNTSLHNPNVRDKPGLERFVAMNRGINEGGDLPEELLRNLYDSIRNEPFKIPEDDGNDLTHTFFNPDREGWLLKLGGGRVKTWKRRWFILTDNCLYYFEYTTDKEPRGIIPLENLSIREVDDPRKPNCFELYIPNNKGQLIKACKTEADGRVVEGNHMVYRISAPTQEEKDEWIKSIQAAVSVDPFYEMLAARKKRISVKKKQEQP
UniProt Q8N8I0: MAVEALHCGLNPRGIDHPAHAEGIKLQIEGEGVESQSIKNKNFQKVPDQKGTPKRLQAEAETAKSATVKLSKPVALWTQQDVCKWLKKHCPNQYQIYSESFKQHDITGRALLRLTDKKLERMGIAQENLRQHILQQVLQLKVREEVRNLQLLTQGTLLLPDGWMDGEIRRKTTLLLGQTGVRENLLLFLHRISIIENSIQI
UniProt O95819: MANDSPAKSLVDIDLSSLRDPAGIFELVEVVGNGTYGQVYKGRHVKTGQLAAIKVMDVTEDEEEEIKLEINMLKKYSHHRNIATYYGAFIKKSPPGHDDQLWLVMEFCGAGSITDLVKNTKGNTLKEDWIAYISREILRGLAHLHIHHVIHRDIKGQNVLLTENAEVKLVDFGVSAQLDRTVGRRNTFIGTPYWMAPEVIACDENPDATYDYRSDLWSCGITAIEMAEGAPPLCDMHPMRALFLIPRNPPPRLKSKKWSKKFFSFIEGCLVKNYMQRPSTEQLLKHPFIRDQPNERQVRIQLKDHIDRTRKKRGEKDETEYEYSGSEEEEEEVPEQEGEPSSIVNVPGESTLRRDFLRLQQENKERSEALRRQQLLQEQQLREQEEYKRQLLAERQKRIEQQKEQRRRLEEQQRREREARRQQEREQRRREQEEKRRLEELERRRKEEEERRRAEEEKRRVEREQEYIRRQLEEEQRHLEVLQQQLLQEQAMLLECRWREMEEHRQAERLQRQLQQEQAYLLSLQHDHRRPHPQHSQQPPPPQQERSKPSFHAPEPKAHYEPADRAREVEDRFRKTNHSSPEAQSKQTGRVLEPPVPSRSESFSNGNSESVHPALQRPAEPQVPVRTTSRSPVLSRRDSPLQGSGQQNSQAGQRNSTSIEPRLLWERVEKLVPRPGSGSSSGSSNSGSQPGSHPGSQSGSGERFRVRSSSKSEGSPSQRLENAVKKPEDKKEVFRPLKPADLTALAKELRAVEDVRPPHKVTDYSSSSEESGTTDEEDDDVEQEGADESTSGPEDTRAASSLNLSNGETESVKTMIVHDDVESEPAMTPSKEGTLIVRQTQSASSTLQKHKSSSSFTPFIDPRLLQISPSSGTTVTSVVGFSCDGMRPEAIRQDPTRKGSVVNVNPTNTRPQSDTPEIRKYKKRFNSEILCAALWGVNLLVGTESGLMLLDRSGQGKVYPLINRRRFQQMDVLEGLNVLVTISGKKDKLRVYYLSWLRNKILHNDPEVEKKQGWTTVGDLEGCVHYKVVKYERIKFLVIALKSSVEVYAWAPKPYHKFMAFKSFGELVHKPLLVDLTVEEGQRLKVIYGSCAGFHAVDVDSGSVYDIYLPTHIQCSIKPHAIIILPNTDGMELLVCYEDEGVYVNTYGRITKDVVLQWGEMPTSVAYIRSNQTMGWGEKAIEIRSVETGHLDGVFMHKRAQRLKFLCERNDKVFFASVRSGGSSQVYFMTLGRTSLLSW
UniProt P35240: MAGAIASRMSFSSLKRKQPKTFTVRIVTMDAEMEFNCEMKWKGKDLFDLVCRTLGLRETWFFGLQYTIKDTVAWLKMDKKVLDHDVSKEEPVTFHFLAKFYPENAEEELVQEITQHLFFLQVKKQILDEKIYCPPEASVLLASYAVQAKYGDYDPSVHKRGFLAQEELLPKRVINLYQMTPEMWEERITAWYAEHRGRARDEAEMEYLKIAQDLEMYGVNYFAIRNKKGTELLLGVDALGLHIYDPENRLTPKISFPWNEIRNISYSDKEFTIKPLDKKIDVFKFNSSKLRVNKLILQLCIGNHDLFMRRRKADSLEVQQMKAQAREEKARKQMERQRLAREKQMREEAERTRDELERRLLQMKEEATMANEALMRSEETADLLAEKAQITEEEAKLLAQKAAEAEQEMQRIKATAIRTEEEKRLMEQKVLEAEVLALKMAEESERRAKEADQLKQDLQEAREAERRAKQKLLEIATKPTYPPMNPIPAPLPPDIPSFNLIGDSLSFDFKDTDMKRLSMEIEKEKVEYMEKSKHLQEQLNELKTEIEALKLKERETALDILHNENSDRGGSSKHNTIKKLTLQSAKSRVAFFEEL
UniProt Q14160: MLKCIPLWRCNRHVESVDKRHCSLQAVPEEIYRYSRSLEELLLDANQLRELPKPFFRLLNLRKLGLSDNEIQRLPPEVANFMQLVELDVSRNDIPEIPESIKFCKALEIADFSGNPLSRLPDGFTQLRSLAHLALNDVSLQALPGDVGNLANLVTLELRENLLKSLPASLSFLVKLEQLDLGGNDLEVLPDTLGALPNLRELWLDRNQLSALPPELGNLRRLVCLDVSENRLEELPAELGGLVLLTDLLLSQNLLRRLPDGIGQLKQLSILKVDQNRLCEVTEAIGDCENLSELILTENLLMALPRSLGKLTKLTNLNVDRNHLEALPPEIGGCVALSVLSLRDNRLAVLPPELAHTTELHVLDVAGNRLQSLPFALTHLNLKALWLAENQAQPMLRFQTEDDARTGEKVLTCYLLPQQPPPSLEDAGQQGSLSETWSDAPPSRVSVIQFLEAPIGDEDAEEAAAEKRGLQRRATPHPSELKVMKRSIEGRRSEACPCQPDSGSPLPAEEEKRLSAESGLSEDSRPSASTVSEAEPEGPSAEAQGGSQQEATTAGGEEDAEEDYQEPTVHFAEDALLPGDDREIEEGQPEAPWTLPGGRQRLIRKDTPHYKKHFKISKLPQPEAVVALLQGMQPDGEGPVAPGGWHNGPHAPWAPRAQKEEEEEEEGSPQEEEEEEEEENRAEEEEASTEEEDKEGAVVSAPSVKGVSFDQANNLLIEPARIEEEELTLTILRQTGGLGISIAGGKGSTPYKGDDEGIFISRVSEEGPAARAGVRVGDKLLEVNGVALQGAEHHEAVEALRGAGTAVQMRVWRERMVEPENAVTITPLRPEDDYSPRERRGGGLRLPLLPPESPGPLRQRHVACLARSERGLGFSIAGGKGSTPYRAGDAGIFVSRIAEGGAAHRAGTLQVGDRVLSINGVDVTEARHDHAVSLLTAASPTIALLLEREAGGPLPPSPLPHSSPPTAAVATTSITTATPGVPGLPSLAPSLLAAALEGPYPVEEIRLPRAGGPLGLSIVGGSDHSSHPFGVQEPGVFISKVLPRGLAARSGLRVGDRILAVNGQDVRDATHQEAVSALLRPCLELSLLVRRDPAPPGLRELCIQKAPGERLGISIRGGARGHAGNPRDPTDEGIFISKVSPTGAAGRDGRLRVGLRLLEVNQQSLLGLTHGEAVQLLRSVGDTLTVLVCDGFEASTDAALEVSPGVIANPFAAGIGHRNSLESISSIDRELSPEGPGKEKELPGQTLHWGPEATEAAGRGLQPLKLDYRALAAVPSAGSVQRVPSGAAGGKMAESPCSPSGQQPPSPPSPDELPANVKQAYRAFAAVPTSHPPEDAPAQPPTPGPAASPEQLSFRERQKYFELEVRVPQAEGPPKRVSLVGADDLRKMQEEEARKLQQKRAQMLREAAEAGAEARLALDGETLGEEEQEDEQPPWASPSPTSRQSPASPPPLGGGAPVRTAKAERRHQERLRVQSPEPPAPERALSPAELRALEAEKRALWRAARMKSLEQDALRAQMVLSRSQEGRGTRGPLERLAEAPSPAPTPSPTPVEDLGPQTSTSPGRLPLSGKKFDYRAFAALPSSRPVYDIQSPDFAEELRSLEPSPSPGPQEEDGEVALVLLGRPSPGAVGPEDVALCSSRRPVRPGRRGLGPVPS
UniProt Q9UKE5: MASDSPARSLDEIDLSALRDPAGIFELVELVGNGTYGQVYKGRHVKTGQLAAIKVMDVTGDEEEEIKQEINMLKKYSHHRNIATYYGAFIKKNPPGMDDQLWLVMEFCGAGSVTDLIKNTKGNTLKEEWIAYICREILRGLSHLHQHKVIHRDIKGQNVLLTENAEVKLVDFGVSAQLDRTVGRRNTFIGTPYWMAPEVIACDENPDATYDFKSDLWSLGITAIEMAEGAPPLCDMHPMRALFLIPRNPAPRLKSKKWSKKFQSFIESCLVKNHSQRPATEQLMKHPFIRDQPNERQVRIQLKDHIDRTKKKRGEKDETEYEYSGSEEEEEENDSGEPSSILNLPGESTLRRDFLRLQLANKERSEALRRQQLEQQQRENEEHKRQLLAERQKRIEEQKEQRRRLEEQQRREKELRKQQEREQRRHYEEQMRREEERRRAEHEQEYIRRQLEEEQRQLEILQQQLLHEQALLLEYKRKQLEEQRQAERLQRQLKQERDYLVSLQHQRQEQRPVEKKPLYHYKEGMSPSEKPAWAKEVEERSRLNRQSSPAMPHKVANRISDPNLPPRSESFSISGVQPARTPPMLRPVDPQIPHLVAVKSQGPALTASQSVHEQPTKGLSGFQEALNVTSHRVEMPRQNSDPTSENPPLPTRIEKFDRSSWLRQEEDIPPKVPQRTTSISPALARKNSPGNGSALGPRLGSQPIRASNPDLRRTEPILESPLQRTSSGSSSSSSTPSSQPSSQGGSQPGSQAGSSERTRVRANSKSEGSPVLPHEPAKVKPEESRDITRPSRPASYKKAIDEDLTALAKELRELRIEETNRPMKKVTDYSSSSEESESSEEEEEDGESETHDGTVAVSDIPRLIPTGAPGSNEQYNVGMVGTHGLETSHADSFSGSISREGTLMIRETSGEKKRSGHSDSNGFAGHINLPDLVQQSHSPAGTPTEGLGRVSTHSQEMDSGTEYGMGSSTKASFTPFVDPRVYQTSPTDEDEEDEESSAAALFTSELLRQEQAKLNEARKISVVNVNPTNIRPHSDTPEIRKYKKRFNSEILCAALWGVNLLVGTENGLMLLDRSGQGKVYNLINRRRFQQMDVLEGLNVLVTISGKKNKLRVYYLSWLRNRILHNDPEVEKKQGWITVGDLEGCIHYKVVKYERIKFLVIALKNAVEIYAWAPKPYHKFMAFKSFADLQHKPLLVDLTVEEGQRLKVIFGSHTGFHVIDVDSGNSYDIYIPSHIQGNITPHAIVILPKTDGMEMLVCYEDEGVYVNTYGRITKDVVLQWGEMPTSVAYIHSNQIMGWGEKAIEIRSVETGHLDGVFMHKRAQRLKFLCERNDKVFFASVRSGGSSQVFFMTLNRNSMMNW

Legend:
GFP-CNK2A WT (human) [1] = target: GFP-CNK2A WT (human) (UniProt Q8WXI2); experiment: co-IP; HEK293T cells transfected with ARF6-V5 and GFP-CNK2A (WT or W591A), with or without FLAG-CYTH1; lysed 24 h after transfection
GFP-CNK2A WT (human) [2] = target: GFP-CNK2A WT (human) (UniProt Q8WXI2); experiment: co-IP; U2OS cells expressing GFP-CNK2A (WT or mutant); immunoblot of MAP4K4, CYTH1, CYTH2, CYTH3 or SCRIB in the precipitate
GFP-CNK2A_L955P (human) = target: T1, GFP-CNK2A_L955P (human) (UniProt Q8WXI2); experiment: as above
T1 sequence: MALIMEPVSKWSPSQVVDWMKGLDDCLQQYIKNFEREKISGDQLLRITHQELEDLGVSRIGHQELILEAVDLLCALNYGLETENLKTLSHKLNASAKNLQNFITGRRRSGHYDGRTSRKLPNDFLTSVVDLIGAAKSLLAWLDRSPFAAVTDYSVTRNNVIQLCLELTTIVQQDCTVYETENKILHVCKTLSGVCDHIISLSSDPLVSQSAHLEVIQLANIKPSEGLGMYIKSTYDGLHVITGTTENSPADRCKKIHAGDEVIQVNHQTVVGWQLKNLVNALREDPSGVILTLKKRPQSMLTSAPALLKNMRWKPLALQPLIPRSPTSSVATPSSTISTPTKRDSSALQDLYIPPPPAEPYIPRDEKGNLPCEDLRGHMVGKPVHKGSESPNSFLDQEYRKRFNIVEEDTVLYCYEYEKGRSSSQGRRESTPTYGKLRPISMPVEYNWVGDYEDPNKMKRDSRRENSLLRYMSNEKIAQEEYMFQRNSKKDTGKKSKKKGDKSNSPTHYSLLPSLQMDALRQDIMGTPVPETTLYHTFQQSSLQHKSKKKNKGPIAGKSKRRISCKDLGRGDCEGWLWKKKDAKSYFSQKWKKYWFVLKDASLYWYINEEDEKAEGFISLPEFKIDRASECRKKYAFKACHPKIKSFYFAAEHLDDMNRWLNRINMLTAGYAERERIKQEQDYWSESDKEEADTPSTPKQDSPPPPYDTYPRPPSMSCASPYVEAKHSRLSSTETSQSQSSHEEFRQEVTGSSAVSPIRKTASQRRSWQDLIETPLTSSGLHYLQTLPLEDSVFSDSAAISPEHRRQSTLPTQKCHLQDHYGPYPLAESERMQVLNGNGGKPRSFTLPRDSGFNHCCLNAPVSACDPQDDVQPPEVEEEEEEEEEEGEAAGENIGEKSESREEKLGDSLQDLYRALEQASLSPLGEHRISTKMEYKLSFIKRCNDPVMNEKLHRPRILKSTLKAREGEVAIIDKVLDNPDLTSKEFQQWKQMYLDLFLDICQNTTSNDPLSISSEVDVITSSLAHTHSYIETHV

[3] = target: endogenous CNK2 (human (endogenous in U2OS)) (UniProt Q8WXI2); experiment: co-IP; endogenous CNK2 precipitated from U2OS lysate with anti-CNK2 and protein A/G agarose beads, 4 °C; immunoblot of endogenous partners
GFP-CNK2A WT (human) [4] = target: GFP-CNK2A WT (human) (UniProt Q8WXI2); experiment: co-IP; U2OS cells expressing FLAG-SAMD12 and GFP-CNK2A (WT or mutant); anti-FLAG M2 with protein A/G beads or GFP-Trap agarose beads, 1 h at 4 °C
[5] = target: T2, GFP-CNK2A_E64R/E68R (human) (UniProt Q8WXI2); experiment: as above
T2 sequence: T1 sequence with E64R, E68R, P955L

FLAG-BirA*-CNK2A (human) = FLAG-BirA*-CNK2A (human) (UniProt Q8WXI2); experiment: co-IP; co-IP with CNK2A in Flp-In T-REx U2OS cells (Supplementary Fig. 5a)

binding (GFP-CNK2A WT (human) [2]) | binding [3] | Substance | other results
binds | binds | CYTH1 (from UniProt Q15438 1-398) | binding (GFP-CNK2A_L955P (human)): no binding
binds | binds | CYTH3 (from UniProt O43739 1-400) | binding (GFP-CNK2A_L955P (human)): no binding

Further lines, the substance ahead of its results:

Substance | binding (GFP-CNK2A WT (human) [2]) | binding [3] | other results
ARF6-V5 (from UniProt P62330 1-175) | – | – | binding (GFP-CNK2A WT (human) [1]): binds
CYTH2 (from UniProt Q99418 1-400) | binds | binds | –
FLAG-SAMD12 (from UniProt Q8N8I0 1-201) | – | – | binding (GFP-CNK2A WT (human) [4]): binds; binding [5]: no binding
MAP4K4 (from UniProt O95819 1-1239) | binds | binds | –
NF2 (from UniProt P35240 1-595) | – | binds | –
SCRIB (from UniProt Q14160 1-1655) | binds | binds | –
TNIK (from UniProt Q9UKE5 1-1360) | – | – | binding (FLAG-BirA*-CNK2A (human)): binds
